# In the BET-seq Pho4 binding data (Le et al. 2018):
# Some of the results follow. Values were computed here from the reads of four pooled replicates and scatter widely.
# Biological target: T1, Pho4 (S. cerevisiae) (UniProt P07270)
# T1 sequence: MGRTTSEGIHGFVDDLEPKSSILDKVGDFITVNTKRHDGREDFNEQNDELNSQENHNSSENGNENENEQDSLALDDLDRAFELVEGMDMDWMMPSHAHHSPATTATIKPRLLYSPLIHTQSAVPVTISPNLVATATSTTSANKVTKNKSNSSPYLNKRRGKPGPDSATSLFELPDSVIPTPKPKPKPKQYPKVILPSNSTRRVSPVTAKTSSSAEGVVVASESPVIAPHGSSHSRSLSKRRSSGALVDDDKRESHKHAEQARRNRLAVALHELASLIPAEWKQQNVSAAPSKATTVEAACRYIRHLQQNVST
# Assay: relative binding free energy (BET-seq); higher = weaker binding
# Conditions: reference: library average
row,Sequence,relative binding free energy
1,TTGGTCACGTGCTCGG,-0.08 kcal/mol
2,TAGGGCACGTGGTGGC,-0.12 kcal/mol
3,ATTGTCACGTGCTCGT,0.14 kcal/mol
4,GGGTCCACGTGTTGCG,-0.05 kcal/mol
5,TTTGTCACGTGAAATT,0.37 kcal/mol
6,TTACTCACGTGGTGTG,0.13 kcal/mol
7,TCTTTCACGTGCTGGG,0.31 kcal/mol
8,TGATGCACGTGGTAAG,0.04 kcal/mol
9,TTTATCACGTGAATCT,0.28 kcal/mol
10,TATCGCACGTGCTGGT,-0.05 kcal/mol
11,AGTGTCACGTGGTGCT,0.01 kcal/mol
12,GCGGTCACGTGGTTTT,0.21 kcal/mol
13,AGGGACACGTGACGTG,0.2 kcal/mol
14,CGGGTCACGTGGGAGT,0.08 kcal/mol
15,GTGCGCACGTGGGGCA,-0.21 kcal/mol
16,TGAAACACGTGTTGTC,0.07 kcal/mol
17,CGCGGCACGTGTGATG,-0.09 kcal/mol
18,TTGGGCACGTGCTAAA,0 kcal/mol
19,AGTAGCACGTGCGTGG,-0.19 kcal/mol
20,AGGTACACGTGTTTCG,0.02 kcal/mol
21,GGCTGCACGTGATAGT,0.19 kcal/mol
22,CGATACACGTGGAGTG,-0.03 kcal/mol
23,TCTCTCACGTGTGTGT,0.21 kcal/mol
24,AGTTTCACGTGTGATT,0.23 kcal/mol
25,TGTGACACGTGGCGTA,-0.19 kcal/mol

row,Sequence,relative binding free energy
1,GCGTTCACGTGTAATG,0.26 kcal/mol
2,AAAAGCACGTGTGGGT,-0.03 kcal/mol
3,TGATACACGTGAGGAT,0.19 kcal/mol
4,GTAGTCACGTGCTAGT,0.03 kcal/mol
5,GGCGGCACGTGGCGTG,-0.2 kcal/mol
6,TGGGTCACGTGTGCAG,0.2 kcal/mol
7,TTGCTCACGTGTTGAG,0.21 kcal/mol
8,GAATACACGTGTGGAT,0.11 kcal/mol
9,AGGTCCACGTGGAAGG,-0.08 kcal/mol
10,TAGATCACGTGCGGGT,-0.04 kcal/mol
11,ATTATCACGTGGGGCG,-0.05 kcal/mol
12,AAGATCACGTGATGTG,0.18 kcal/mol
13,GAATGCACGTGCGGTT,-0.07 kcal/mol
14,AGTCGCACGTGGTAGG,-0.19 kcal/mol
15,TTTCACACGTGGTTGG,0.04 kcal/mol
16,GAAAGCACGTGTTTAT,0.06 kcal/mol
17,GACTTCACGTGTTTTA,0.4 kcal/mol
18,TTTGGCACGTGTGCAT,-0.08 kcal/mol
19,ATAATCACGTGGGGGG,0.05 kcal/mol
20,TAGATCACGTGAATTT,0.3 kcal/mol
21,TACATCACGTGGTGAG,0.03 kcal/mol
22,CGTGGCACGTGGGGGA,-0.19 kcal/mol
23,GAATCCACGTGGTGGG,0.14 kcal/mol
24,GTTGGCACGTGACGAG,0.06 kcal/mol
25,GTTTTCACGTGACGTG,0.45 kcal/mol

row,Sequence,relative binding free energy
1,ACATTCACGTGGGTCG,0.24 kcal/mol
2,GAAGTCACGTGTTTTG,0.23 kcal/mol
3,AGGAGCACGTGGTATT,-0.11 kcal/mol
4,GGAGTCACGTGGTGGC,0.05 kcal/mol
5,GGTAGCACGTGGAATT,0.08 kcal/mol
6,TGTCGCACGTGGGACA,-0.11 kcal/mol
7,TAGTTCACGTGGTCTG,0.31 kcal/mol
8,TGGGCCACGTGTTGAT,-0.17 kcal/mol
9,GGCGGCACGTGGAAGA,0.08 kcal/mol
10,GGGGCCACGTGTTGTA,-0.07 kcal/mol
11,GCTTGCACGTGTTTGT,0.04 kcal/mol
12,TGGTTCACGTGGCAGA,0.29 kcal/mol
13,ATTGTCACGTGAGCGG,0.27 kcal/mol
14,CGTGGCACGTGCAAGG,-0.16 kcal/mol
15,ATATTCACGTGAGTCG,0.48 kcal/mol
16,TTAAACACGTGAGATG,0.22 kcal/mol
17,CATTGCACGTGAGGTT,0.11 kcal/mol
18,TTTGCCACGTGTGCTG,-0.11 kcal/mol
19,TCTTTCACGTGTGTCG,0.27 kcal/mol
20,CAGTGCACGTGGGGGG,-0.27 kcal/mol
21,GGTTACACGTGTGATG,0.19 kcal/mol
22,GTGGTCACGTGCGAGA,0.2 kcal/mol
23,TGTGACACGTGGCTTA,-0.14 kcal/mol
24,GTGTACACGTGTTGGT,0.11 kcal/mol
25,TATGGCACGTGTGTTC,-0.02 kcal/mol

row,Sequence,relative binding free energy
1,GTAAGCACGTGCTGAT,0.08 kcal/mol
2,TGCAGCACGTGCGTTT,-0.06 kcal/mol
3,GCTGGCACGTGAATGA,0.34 kcal/mol
4,TGATTCACGTGTAATG,0.2 kcal/mol
5,GTCGACACGTGGAGAG,0.2 kcal/mol
6,GGGTTCACGTGGTGTT,0.3 kcal/mol
7,TCGTTCACGTGGGTTG,0.19 kcal/mol
8,GGGATCACGTGATTGG,0.34 kcal/mol
9,AGGGTCACGTGCCGTG,0.06 kcal/mol
10,GCTTACACGTGTGGTT,0.16 kcal/mol
11,TATAACACGTGGGTGT,-0.11 kcal/mol
12,GGCGACACGTGTGGTC,0.29 kcal/mol
13,AGTGACACGTGATGTA,0.1 kcal/mol
14,GGGGGCACGTGCGCGG,-0.27 kcal/mol
15,TTCTGCACGTGATGGT,0.22 kcal/mol
16,TGGAACACGTGGCGTT,-0.01 kcal/mol
17,CTGGTCACGTGTTTCA,0.16 kcal/mol
18,ATGCGCACGTGGGTTA,-0.2 kcal/mol
19,AATGTCACGTGTAGGT,0.14 kcal/mol
20,GGCTGCACGTGATTTA,0.29 kcal/mol
21,CTGGGCACGTGTATCG,-0.06 kcal/mol
22,GTTAGCACGTGCTTAA,0 kcal/mol
23,AAAGGCACGTGCTAGG,-0.18 kcal/mol
24,GCTTACACGTGGGGGC,0.02 kcal/mol
25,ACGTGCACGTGAGGTG,0.14 kcal/mol

row,Sequence,relative binding free energy
1,ATGTGCACGTGTCAGG,-0.07 kcal/mol
2,TTACACACGTGTGGAT,0.19 kcal/mol
3,CCGGTCACGTGAAGGG,0.24 kcal/mol
4,ATGTTCACGTGACGGC,0.67 kcal/mol
5,GTATTCACGTGAAGTA,0.35 kcal/mol
6,GGAATCACGTGATGTG,0.35 kcal/mol
7,GAGGACACGTGTTTTT,0.18 kcal/mol
8,TTAGGCACGTGTGTAT,-0.06 kcal/mol
9,CATATCACGTGTGGAT,0.37 kcal/mol
10,GTGGTCACGTGTGCGG,0.14 kcal/mol
11,TTTTGCACGTGAATCT,0.05 kcal/mol
12,TGTCCCACGTGGGTAG,-0.13 kcal/mol
13,TGTTACACGTGTATCG,-0.04 kcal/mol
14,ATTTTCACGTGCATTA,0.19 kcal/mol
15,GGATTCACGTGAAGCG,0.53 kcal/mol
16,TTGTACACGTGCTTAG,0 kcal/mol
17,GGAGTCACGTGAGGCG,0.27 kcal/mol
18,GAATTCACGTGGGGAG,0.09 kcal/mol
19,ACATACACGTGTTTGT,-0.03 kcal/mol
20,TTGGACACGTGCATTG,0.08 kcal/mol
21,ATTGTCACGTGGATGT,0.17 kcal/mol
22,GCATACACGTGGTGGT,0.04 kcal/mol
23,AGGTACACGTGTTGTA,0.05 kcal/mol
24,GTGTCCACGTGTTGCT,0.01 kcal/mol
25,AACTGCACGTGATGGT,0.11 kcal/mol

row,Sequence,relative binding free energy
1,GTGCTCACGTGGAAGT,0.19 kcal/mol
2,TGTCACACGTGTTTCT,0.11 kcal/mol
3,GTTGACACGTGAATGG,0.15 kcal/mol
4,GAGGCCACGTGGGGGG,-0.24 kcal/mol
5,AAGTTCACGTGAGGGT,0.3 kcal/mol
6,TGGTCCACGTGAGTGC,0.22 kcal/mol
7,TGATACACGTGGGTCA,-0.13 kcal/mol
8,TTTAGCACGTGGGGCT,-0.27 kcal/mol
9,GCGTTCACGTGCATGG,0.29 kcal/mol
10,GGTTGCACGTGGCTAG,-0.06 kcal/mol
11,GGATGCACGTGATGGC,0.15 kcal/mol
12,TCGTTCACGTGTAAGG,0.34 kcal/mol
13,TTCATCACGTGATATT,0.25 kcal/mol
14,ATCTGCACGTGTTGTG,0.09 kcal/mol
15,TTCGGCACGTGCGGCT,-0.06 kcal/mol
16,AATTGCACGTGAGGGG,0.21 kcal/mol
17,TAGGCCACGTGGAAGG,0.04 kcal/mol
18,GGTAACACGTGTTGTG,0.05 kcal/mol
19,AGTAACACGTGTAAGA,0.13 kcal/mol
20,GGTGACACGTGTTTGC,0.14 kcal/mol
21,ATTCTCACGTGAATTG,0.36 kcal/mol
